# The supplement of paper PMC8728848
# Some of the results follow.
# B1: Tachylectin-2 (Tachypleus tridentatus), TAL2_TACTR (protein)
# chain: VGGESMLRGVYQDKFYQGTYPQNKNDNWLARATLIGKGGWSNFKFLFLSPGGELYGVLNDKIYKGTPPTHDNDNWMGRAKKIGNGGWNQFQFLFFDPNGYLYAVSKDKLYKASPPQSDTDNWIARATEIGSGGWSGFKFLFFHPNGYLYAVHGQQFYKALPPVSNQDNWLARATKIGQGGWDTFKFLFFSSVGTLFGVQGGKFYEDYPPSYAHDNWLARAKLIGNGGWDDFRFLFF
# How the values were obtained:
# Experiment in all cases: glycan array binding signal (z-score within array); higher = stronger binding
# Settings in all cases: glycan notation: IUPAC condensed, linker removed
# Fuc(a1-2)Gal = target: Fuc(a1-2)Gal
# Outline: (§1)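 The binding signal is a Z-score computed within each array. Data were drawn from 3228 arrays in the Consortium for Functional Glycomics database, restricted to those with a known protein sequence. Scores were averaged over arrays of the same protein sequence at different concentrations or buffers, and over linkers, and negative values can be taken as non-binding.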
# Fuc(a1-2)Gal(b1-3)GalNAc = target: Fuc(a1-2)Gal(b1-3)GalNAc
# Outline: as §1
# [1] = target: Fuc(a1-2)Gal(b1-3)GalNAc(a1-3)[Fuc(a1-2)]Gal(b1-4)Glc
# Outline: as §1
# [2] = target: Fuc(a1-2)Gal(b1-3)GalNAc(a1-3)[Fuc(a1-2)]Gal(b1-4)GlcNAc
# Outline: as §1
# [3] = target: Fuc(a1-2)Gal(b1-3)GalNAc(b1-3)Gal
# Outline: as §1
# [4] = target: Fuc(a1-2)Gal(b1-3)GalNAc(b1-3)Gal(a1-4)Gal(b1-4)Glc
# Outline: as §1
# [5] = target: Fuc(a1-2)Gal(b1-3)GalNAc(b1-4)[Neu5Ac(a2-3)]Gal(b1-4)Glc
# Outline: as §1
# Fuc(a1-2)Gal(b1-3)GlcNAc = target: Fuc(a1-2)Gal(b1-3)GlcNAc
# Outline: as §1
# [6] = target: Fuc(a1-2)Gal(b1-3)GlcNAc(b1-2)Man(a1-3)[Fuc(a1-2)Gal(b1-3)GlcNAc(b1-2)Man(a1-6)]Man(b1-4)GlcNAc(b1-4)GlcNAc
# Outline: as §1
# [7] = target: Fuc(a1-2)Gal(b1-3)GlcNAc(b1-3)Gal(b1-4)Glc
# Outline: as §1
# [8] = target: Fuc(a1-2)Gal(b1-3)GlcNAc(b1-3)[Fuc(a1-3)[Gal(b1-4)]GlcNAc(b1-6)]Gal(b1-4)Glc
# Outline: as §1
# [9] = target: Fuc(a1-2)Gal(b1-3)[Fuc(a1-4)]GlcNAc
# Outline: as §1
# [10] = target: Fuc(a1-2)Gal(b1-3)[Fuc(a1-4)]GlcNAc(b1-2)Man(a1-3)[Fuc(a1-2)Gal(b1-3)[Fuc(a1-4)]GlcNAc(b1-2)Man(a1-6)]Man(b1-4)GlcNAc(b1-4)GlcNAc
# Outline: as §1
# [11] = target: Fuc(a1-2)Gal(b1-3)[Fuc(a1-4)]GlcNAc(b1-3)[Fuc(a1-3)[Gal(b1-4)]GlcNAc(b1-6)]Gal(b1-4)Glc
# Outline: as §1
# [12] = target: Fuc(a1-2)Gal(b1-3)[Fuc(a1-4)]GlcNAc(b1-3)[Gal(b1-4)GlcNAc(b1-6)]Gal(b1-4)Glc
# Outline: as §1
# Fuc(a1-2)Gal(b1-4)Glc = target: Fuc(a1-2)Gal(b1-4)Glc
# Outline: as §1
# Fuc(a1-2)Gal(b1-4)Glc6S = target: Fuc(a1-2)Gal(b1-4)Glc6S
# Outline: as §1
# Fuc(a1-2)Gal(b1-4)GlcNAc = target: Fuc(a1-2)Gal(b1-4)GlcNAc
# Outline: as §1
# [13] = target: Fuc(a1-2)Gal(b1-4)GlcNAc(b1-2)Man(a1-3)[Fuc(a1-2)Gal(b1-4)GlcNAc(b1-2)Man(a1-6)]Man(b1-4)GlcNAc(b1-4)GlcNAc
# Outline: as §1
# [14] = target: Fuc(a1-2)Gal(b1-4)GlcNAc(b1-3)Gal(b1-4)GlcNAc
# Outline: as §1
# [15] = target: Fuc(a1-2)Gal(b1-4)GlcNAc(b1-3)Gal(b1-4)GlcNAc(b1-3)Gal(b1-4)GlcNAc
# Outline: as §1
# [16] = target: Fuc(a1-2)Gal(b1-4)GlcNAc(b1-3)GalNAc
# Outline: as §1
# [17] = target: Fuc(a1-2)Gal(b1-4)GlcNAc6S
# Outline: as §1
# [18] = target: Fuc(a1-2)Gal(b1-4)[Fuc(a1-3)]GlcNAc
# Outline: as §1
# [19] = target: Fuc(a1-2)Gal(b1-4)[Fuc(a1-3)]GlcNAc(b1-2)Man(a1-3)[Fuc(a1-2)Gal(b1-4)[Fuc(a1-3)]GlcNAc(b1-2)Man(a1-6)]Man(b1-4)GlcNAc(b1-4)GlcNAc
# Outline: as §1
# [20] = target: Fuc(a1-2)Gal(b1-4)[Fuc(a1-3)]GlcNAc(b1-3)Gal(b1-4)[Fuc(a1-3)]GlcNAc
# Outline: as §1
# [21] = target: Fuc(a1-2)Gal(b1-4)[Fuc(a1-3)]GlcNAc(b1-3)Gal(b1-4)[Fuc(a1-3)]GlcNAc(b1-3)Gal(b1-4)[Fuc(a1-3)]GlcNAc
# Outline: as §1
# Fuc(a1-2)Gal6S(b1-4)Glc = target: Fuc(a1-2)Gal6S(b1-4)Glc
# Outline: as §1
# [22] = target: Fuc(a1-2)Gal6S(b1-4)Glc6S
# Outline: as §1
# [23] = target: Fuc(a1-2)Gal6S(b1-4)GlcNAc
# Outline: as §1
binder,measurement,setting,value
B1,glycan array binding signal (z-score),Fuc(a1-2)Gal,-0.163
same,glycan array binding signal (z-score),Fuc(a1-2)Gal(b1-3)GalNAc,-0.238
same,glycan array binding signal (z-score),[1],-0.293
same,glycan array binding signal (z-score),[2],-0.286
same,glycan array binding signal (z-score),[3],-0.277
same,glycan array binding signal (z-score),[4],-0.363
same,glycan array binding signal (z-score),[5],-0.351
same,glycan array binding signal (z-score),Fuc(a1-2)Gal(b1-3)GlcNAc,-0.312
same,glycan array binding signal (z-score),[6],-0.293
same,glycan array binding signal (z-score),[7],-0.335
same,glycan array binding signal (z-score),[8],-0.295
same,glycan array binding signal (z-score),[9],-0.362
same,glycan array binding signal (z-score),[10],-0.284
same,glycan array binding signal (z-score),[11],-0.294
same,glycan array binding signal (z-score),[12],-0.295
same,glycan array binding signal (z-score),Fuc(a1-2)Gal(b1-4)Glc,-0.347
same,glycan array binding signal (z-score),Fuc(a1-2)Gal(b1-4)Glc6S,-0.316
same,glycan array binding signal (z-score),Fuc(a1-2)Gal(b1-4)GlcNAc,-0.309
same,glycan array binding signal (z-score),[13],-0.297
same,glycan array binding signal (z-score),[14],-0.221
same,glycan array binding signal (z-score),[15],-0.238
same,glycan array binding signal (z-score),[16],-0.291
same,glycan array binding signal (z-score),[17],-0.324
same,glycan array binding signal (z-score),[18],-0.248
same,glycan array binding signal (z-score),[19],-0.285
same,glycan array binding signal (z-score),[20],-0.389
same,glycan array binding signal (z-score),[21],-0.335
same,glycan array binding signal (z-score),Fuc(a1-2)Gal6S(b1-4)Glc,-0.041
same,glycan array binding signal (z-score),[22],-0.291
same,glycan array binding signal (z-score),[23],-0.393
